# Laboratory results from the supplement of paper PMC10037445.
# The full ranking holds about 2,900 compounds; the median of “NF-kB SEAP reporter activity, fold change vs agonist alone” is about 0.99, and the highest 2% start at about 2.6. This is one part of the list.
# Key:
# [1] = tested on: RAW-Dual; experiment: NF-kB SEAP reporter activity, fold change vs agonist alone; higher = enhanced NF-kB activity
# In short: (§1)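 Cytotoxic wells were those whose IncuCyte confluency was below 70% of agonist controls in both mask sets. The cells were RAW-Dual macrophages at 50,000 cells/well in DMEM on 384-well plates, dosed with 50 nL of library stock by pin tool, stimulated with a PRR agonist 1 h later, and kept at 37 °C, 5% CO2 for 20 hours. IRF and NF-κB reporter activity, as fold change over agonist-alone wells, came from supernatant read by QuantiLuc luminescence and QuantiBlue absorbance, respectively.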
# [2] = tested on: RAW-Dual; experiment: NF-kB SEAP reporter activity, fold change vs agonist alone; cytotoxicity flag (confluency mask): not cytotoxic; higher = enhanced NF-kB activity
# In short: as §1
# [3] = tested on: RAW-Dual; experiment: NF-kB SEAP reporter activity, fold change vs agonist alone; cytotoxicity flag (confluency mask): cytotoxic (confluency <70% of control); higher = enhanced NF-kB activity
# In short: as §1
# [4] = library stock concentration (final ~1000-fold dilution): 10 mM, cytotoxicity flag (confluency mask): not cytotoxic, agonist: Imiquimod (TLR7) […]
# [5] = library stock concentration (final ~1000-fold dilution): 10 mM, cytotoxicity flag (confluency mask): not cytotoxic, agonist: MPLA (TLR4) […]
# [6] = agonist: ODN 1826 (TLR9) 0.5 ug/mL
# [7] = agonist: Pam2CSK4 (TLR2/6) 0.1 ug/mL
# [8] = agonist: Pam3CSK4 (TLR2/1) 0.1 ug/mL
# [9] = library stock concentration (final ~1000-fold dilution): 10 mM, cytotoxicity flag (confluency mask): cytotoxic (confluency <70% of control), agonist: Imiquimod (TLR7) […]
# [10] = library stock concentration (final ~1000-fold dilution): 10 mM, cytotoxicity flag (confluency mask): cytotoxic (confluency <70% of control), agonist: MPLA (TLR4) […]
structure (smiles),measurement,setting,value
O=C(OCC1OC(OC(=O)c2cc(O)c(O)c(OC(=O)c3cc(O)c(O)c(O)c3)c2)C(OC(=O)c2cc(O)c(O)c(OC(=O)c3cc(O)c(O)c(O)c3)c2)C(OC(=O)c2cc(O)c(O)c(OC(=O)c3cc(O)c(O)c(O)c3)c2)C1OC(=O)c1cc(O)c(O)c(OC(=O)c2cc(O)c(O)c(O)c2)c1)c1cc(O)c(O)c(OC(=O)c2cc(O)c(O)c(O)c2)c1 (stereo unspecified),NF-kB SEAP reporter activity,[1]; [4],0.144
same,NF-kB SEAP reporter activity,[1]; [5],0.319
O=C(OCC1OC(OC(=O)c2cc(O)c(O)c(OC(=O)c3cc(O)c(O)c(O)c3)c2)C(OC(=O)c2cc(O)c(O)c(OC(=O)c3cc(O)c(O)c(O)c3)c2)C(OC(=O)c2cc(O)c(O)c(OC(=O)c3cc(O)c(O)c(O)c3)c2)C1OC(=O)c1cc(O)c(O)c(OC(=O)c2cc(O)c(O)c(O)c2)c1)c1cc(O)c(O)c(OC(=O)c2cc(O)c(O)c(O)c2)c1 (stereo unspecified) (library stock concentration (final ~1000-fold dilution): 10 mM),NF-kB SEAP reporter activity,[2]; agonist: LPS (TLR4) 0.1 ug/mL,1.25
same,NF-kB SEAP reporter activity,[2]; [6],0.116
same,NF-kB SEAP reporter activity,[2]; [7],1.04
same,NF-kB SEAP reporter activity,[2]; [8],0.185
COc1ccc(Oc2cc(C)c(-c3csc(NC(=O)c4ccncc4)n3)c(C)c2)cc1,NF-kB SEAP reporter activity,[1]; [4],1.09
same,NF-kB SEAP reporter activity,[1]; [5],1.68
COc1ccc(Oc2cc(C)c(-c3csc(NC(=O)c4ccncc4)n3)c(C)c2)cc1 (library stock concentration (final ~1000-fold dilution): 10 mM),NF-kB SEAP reporter activity,[2]; agonist: LPS (TLR4) 0.1 ug/mL,1.98
same,NF-kB SEAP reporter activity,[2]; [6],1.37
same,NF-kB SEAP reporter activity,[2]; [7],0.395
same,NF-kB SEAP reporter activity,[2]; [8],0.431
COCC(=O)NC/C=C/c1ccc2ncnc(Nc3ccc(Oc4ccc(C)nc4)c(C)c3)c2c1,NF-kB SEAP reporter activity,[1]; [4],0.843
same,NF-kB SEAP reporter activity,[1]; [5],1.08
COCC(=O)NC/C=C/c1ccc2ncnc(Nc3ccc(Oc4ccc(C)nc4)c(C)c3)c2c1 (library stock concentration (final ~1000-fold dilution): 10 mM),NF-kB SEAP reporter activity,[2]; agonist: LPS (TLR4) 0.1 ug/mL,1.22
same,NF-kB SEAP reporter activity,[2]; [6],0.832
same,NF-kB SEAP reporter activity,[2]; [7],0.987
same,NF-kB SEAP reporter activity,[2]; [8],1.15
CCCc1cc(C)[nH]c(=O)c1CNC(=O)c1cc(-c2ccnc(N3CCN(C)CC3)c2)cc2c1cnn2C(C)C (library stock concentration (final ~1000-fold dilution): 2 mM),NF-kB SEAP reporter activity,[2]; agonist: LPS (TLR4) 0.1 ug/mL,1.44
same,NF-kB SEAP reporter activity,[2]; [6],1.07
same,NF-kB SEAP reporter activity,[2]; [7],1.12
same,NF-kB SEAP reporter activity,[2]; [8],1.24
CCCc1cc(C)[nH]c(=O)c1CNC(=O)c1cc(-c2ccnc(N3CCN(C)CC3)c2)cc2c1cnn2C(C)C,NF-kB SEAP reporter activity,"[1]; library stock concentration (final ~1000-fold dilution): 2 mM, cytotoxicity flag (confluency mask): not cytotoxic, agonist: Imiquimod (TLR7) […]",0.989
same,NF-kB SEAP reporter activity,"[1]; library stock concentration (final ~1000-fold dilution): 2 mM, cytotoxicity flag (confluency mask): not cytotoxic, agonist: MPLA (TLR4) […]",1.03
CN(CCCCCCCCCCN(C)C(=O)Oc1cccc([N+](C)(C)C)c1)C(=O)Oc1cccc([N+](C)(C)C)c1,NF-kB SEAP reporter activity,[1]; [4],0.95
same,NF-kB SEAP reporter activity,[1]; [5],1.04
CN(CCCCCCCCCCN(C)C(=O)Oc1cccc([N+](C)(C)C)c1)C(=O)Oc1cccc([N+](C)(C)C)c1 (library stock concentration (final ~1000-fold dilution): 10 mM),NF-kB SEAP reporter activity,[2]; agonist: LPS (TLR4) 0.1 ug/mL,1.26
same,NF-kB SEAP reporter activity,[2]; [6],0.95
same,NF-kB SEAP reporter activity,[2]; [7],1.11
same,NF-kB SEAP reporter activity,[2]; [8],1.12
Cc1c(C(=O)Nc2ccc(N3CC(C)OC(C)C3)nc2)cccc1-c1ccc(OC(F)(F)F)cc1 (stereo unspecified) (library stock concentration (final ~1000-fold dilution): 10 mM),NF-kB SEAP reporter activity,[2]; agonist: LPS (TLR4) 0.1 ug/mL,1.13
same,NF-kB SEAP reporter activity,[2]; [6],1.35
same,NF-kB SEAP reporter activity,[2]; [7],0.839
same,NF-kB SEAP reporter activity,[2]; [8],1.12
Cc1c(C(=O)Nc2ccc(N3CC(C)OC(C)C3)nc2)cccc1-c1ccc(OC(F)(F)F)cc1 (stereo unspecified),NF-kB SEAP reporter activity,[1]; [4],0.808
same,NF-kB SEAP reporter activity,[1]; [5],0.657
CCCCC(CC)COC(=O)CC(C(=O)OCC(CC)CCCC)S(=O)(=O)O (stereo unspecified),NF-kB SEAP reporter activity,[1]; [9],0.887
same,NF-kB SEAP reporter activity,[1]; [10],0.81
CCCCC(CC)COC(=O)CC(C(=O)OCC(CC)CCCC)S(=O)(=O)O (stereo unspecified) (library stock concentration (final ~1000-fold dilution): 10 mM),NF-kB SEAP reporter activity,[3]; agonist: LPS (TLR4) 0.1 ug/mL,0.759
same,NF-kB SEAP reporter activity,[3]; [6],0.813
same,NF-kB SEAP reporter activity,[3]; [7],0.803
same,NF-kB SEAP reporter activity,[3]; [8],0.79
C=CC1CN2CCC1CC2C(O)c1ccnc2ccc(OC)cc12.C=CC1CN2CCC1CC2C(O)c1ccnc2ccc(OC)cc12.O.O.O=S(=O)(O)O (stereo unspecified) (library stock concentration (final ~1000-fold dilution): 10 mM),NF-kB SEAP reporter activity,[2]; agonist: LPS (TLR4) 0.1 ug/mL,1.16
same,NF-kB SEAP reporter activity,[2]; [6],0.531
same,NF-kB SEAP reporter activity,[2]; [7],1.35
same,NF-kB SEAP reporter activity,[2]; [8],1.05
C=CC1CN2CCC1CC2C(O)c1ccnc2ccc(OC)cc12.C=CC1CN2CCC1CC2C(O)c1ccnc2ccc(OC)cc12.O.O.O=S(=O)(O)O (stereo unspecified),NF-kB SEAP reporter activity,[1]; [4],1.06
same,NF-kB SEAP reporter activity,[1]; [5],0.931
CNCCC(Oc1ccc(C(F)(F)F)cc1)c1ccccc1.Cl (stereo unspecified) (library stock concentration (final ~1000-fold dilution): 10 mM),NF-kB SEAP reporter activity,[3]; agonist: LPS (TLR4) 0.1 ug/mL,1.16
same,NF-kB SEAP reporter activity,[3]; [6],0.851
same,NF-kB SEAP reporter activity,[3]; [7],0.553
same,NF-kB SEAP reporter activity,[3]; [8],0.698
CNCCC(Oc1ccc(C(F)(F)F)cc1)c1ccccc1.Cl (stereo unspecified),NF-kB SEAP reporter activity,[1]; [9],1.46
same,NF-kB SEAP reporter activity,[1]; [10],1.43
NC(CO)(CO)CO.O=C(c1ccccc1)c1ccc2n1CCC2C(=O)O (stereo unspecified),NF-kB SEAP reporter activity,[1]; [4],0.873
same,NF-kB SEAP reporter activity,[1]; [5],0.938
NC(CO)(CO)CO.O=C(c1ccccc1)c1ccc2n1CCC2C(=O)O (stereo unspecified) (library stock concentration (final ~1000-fold dilution): 10 mM),NF-kB SEAP reporter activity,[2]; agonist: LPS (TLR4) 0.1 ug/mL,1.07
same,NF-kB SEAP reporter activity,[2]; [6],0.849
same,NF-kB SEAP reporter activity,[2]; [7],0.961
same,NF-kB SEAP reporter activity,[2]; [8],1.28
COc1cn(-c2ccc(-n3cccn3)cc2F)nc(-c2ccnn2-c2ccccc2)c1=O,NF-kB SEAP reporter activity,[1]; [4],1.19
same,NF-kB SEAP reporter activity,[1]; [5],1.1
COc1cn(-c2ccc(-n3cccn3)cc2F)nc(-c2ccnn2-c2ccccc2)c1=O (library stock concentration (final ~1000-fold dilution): 10 mM),NF-kB SEAP reporter activity,[2]; agonist: LPS (TLR4) 0.1 ug/mL,1.14
same,NF-kB SEAP reporter activity,[2]; [6],1.3
same,NF-kB SEAP reporter activity,[2]; [7],0.992
same,NF-kB SEAP reporter activity,[2]; [8],1.28
COC(=O)NC(C(=O)NC(Cc1ccccc1)C(O)CN(Cc1ccc(-c2ccccn2)cc1)NC(=O)C(NC(=O)OC)C(C)(C)C)C(C)(C)C (stereo unspecified) (library stock concentration (final ~1000-fold dilution): 10 mM),NF-kB SEAP reporter activity,[2]; agonist: LPS (TLR4) 0.1 ug/mL,1.03
same,NF-kB SEAP reporter activity,[2]; [6],1.02
same,NF-kB SEAP reporter activity,[2]; [7],1.11
same,NF-kB SEAP reporter activity,[2]; [8],0.79
COC(=O)NC(C(=O)NC(Cc1ccccc1)C(O)CN(Cc1ccc(-c2ccccn2)cc1)NC(=O)C(NC(=O)OC)C(C)(C)C)C(C)(C)C (stereo unspecified),NF-kB SEAP reporter activity,[1]; [5],0.961
